To fix the notation:
B1: PhoQ; a variant is named by its letters at X, in order, P23837 (parent)
chain: MKKLLRLFFPLSLRVRFLLATAAVVLVLSLAYGMVALIGYSVSFDKTTFRLLRGESNLFYTLAKWENNKLHVELPENIDKQSPTMTLIYDENGQLLWAQRDVPWLMKMIQPDWLKSNGFHEIEADVNDTSLLLSGDHSIQQQLQEVREDDDDAEMTHSVAVNVYPATSRMPKLTIVVVDTIPVELKSSYMVWSWFIYVLSANLLLVIPLLWVAAWWSLRPIEALAKEVRELEEHNRELLNPATTRELTSLVRNLNRLLKSERERYDKYRTTLTDLTHSLKTPLXXLQXXLRSLRSEKMSVSDAEPVMLEQISRISQQIGYYLHRASMRGGTLLSRELHPVAPLLDNLTSALNKVYQRKGVNISLDISPEISFVGEQNDFVEVMGNVLDNACKYCLEFVEISARQTDEHLYIVVEDDGPGIPLSKREVIFDRGQRVDTLRPGQGVGLAVAREITEQYEGKIVAGESMLGGARMEVIFGRQHSAPKDE

This is one part of the list.

In the assay the parent is B1. The assay can be described thus: enrichment ratio after two sorts for PhoP signalling (ratio (wild type AVST 3.29)); higher = more functional. The following applies: with PhoP (E. coli).
Consider QNYH, for which the enrichment ratio is ≤ 0.25.
As for MYSL, the figure is ≤ 0.25; as for AYDP, ≤ 0.25.
Take FFEQ: the enrichment ratio was ≤ 0.25.
On to VWSR, for which the enrichment ratio is ≤ 0.25.
Take LGMS: the enrichment ratio is ≤ 0.25.
In the case of MSSR it was ≤ 0.25; in that of FYYI, ≤ 0.25; in that of MRAW, ≤ 0.25.
On to VDNC, for which the enrichment ratio is ≤ 0.25.
On to WQML, for which the enrichment ratio was ≤ 0.25.
For GKYY, the enrichment ratio was ≤ 0.25.
As for YTTC, the enrichment ratio is ≤ 0.25.
Regarding DRPC, the enrichment ratio was ≤ 0.25.
Take RIAH: the enrichment ratio was ≤ 0.25.
In the case of YGTP, the enrichment ratio was determined as 0.428.
On to YPKV, for which the enrichment ratio is ≤ 0.25.
On to VKPQ, for which the enrichment ratio is ≤ 0.25.
As to DDDP, the enrichment ratio was ≤ 0.25.
Turning to WPRG, the enrichment ratio was ≤ 0.25.
In the case of RAES, the enrichment ratio was ≤ 0.25.
Consider SVQH, for which the enrichment ratio came out at 4.82.
In the case of LKQH, the enrichment ratio was ≤ 0.25.
With FSRG, the enrichment ratio was ≤ 0.25.
Turning to WRDR, the enrichment ratio was ≤ 0.25.
On to EYQA, for which the enrichment ratio is ≤ 0.25.
PCPS: the enrichment ratio was ≤ 0.25.
As for IVAD, the figure is ≤ 0.25.
For KICC, the enrichment ratio is ≤ 0.25.
Take LDPM: the enrichment ratio is ≤ 0.25.
Consider EING, for which the enrichment ratio was ≤ 0.25.
Regarding LVNF, the enrichment ratio was ≤ 0.25.
Regarding WSRC, the enrichment ratio was ≤ 0.25.
As for RLGE, the enrichment ratio is ≤ 0.25.
Regarding ARCL, the enrichment ratio was determined as 4.81.
Take HNDL: the enrichment ratio is ≤ 0.25.
Regarding MMPP, the enrichment ratio is ≤ 0.25.
As to LYES, the enrichment ratio is ≤ 0.25.
Turning to GTII, the enrichment ratio is 13.8.
With TLGH, the enrichment ratio was 12.5.
On to DGEL, for which the enrichment ratio is ≤ 0.25.
MAMH: the enrichment ratio is ≤ 0.25.
With VFNS, the enrichment ratio is ≤ 0.25.
With LDAP, the enrichment ratio is ≤ 0.25.
Consider ADFD, for which the enrichment ratio was ≤ 0.25.
As for REEV, the enrichment ratio was ≤ 0.25.
In the case of LPKD it was ≤ 0.25; in that of KYRE, ≤ 0.25; in that of VCGN, ≤ 0.25.
For the variant SSKD, the enrichment ratio is ≤ 0.25.
TGMK: the enrichment ratio is ≤ 0.25.
As for NHMK, the enrichment ratio was ≤ 0.25.
In the case of RQAL, the enrichment ratio was ≤ 0.25.
In the case of KQWI, the enrichment ratio is ≤ 0.25.
In the case of ENPQ, the enrichment ratio is ≤ 0.25.
In the case of QDEV it was ≤ 0.25.
Take GMRT: the enrichment ratio was ≤ 0.25.
For the variant RPQS, the enrichment ratio is ≤ 0.25.
Regarding RLVG, the enrichment ratio is ≤ 0.25.
As for LGFT, the figure is ≤ 0.25; as for WKRI, ≤ 0.25.
Turning to IECH, the enrichment ratio was ≤ 0.25.
In the case of KFQH it was 1.05.
As for FNEC, the enrichment ratio was ≤ 0.25.
In the case of YWLK it was ≤ 0.25.
As to AYVK, the enrichment ratio was ≤ 0.25.
In the case of KKYY, the enrichment ratio is ≤ 0.25.
Take RGDP: the enrichment ratio is ≤ 0.25.
Take DTIV: the enrichment ratio is ≤ 0.25.
As for TLCT, the enrichment ratio was 2.28.
Regarding WFAN, the enrichment ratio is ≤ 0.25.
As for WSTW, the enrichment ratio is ≤ 0.25.
With DCAE, the enrichment ratio was ≤ 0.25.
Consider PPWH, for which the enrichment ratio is ≤ 0.25.
YVFL: the enrichment ratio is ≤ 0.25.
Consider VYMV, for which the enrichment ratio was ≤ 0.25.
Take MEHA: the enrichment ratio was ≤ 0.25.
VWWS: the enrichment ratio is ≤ 0.25.
Regarding NQTT, the enrichment ratio is ≤ 0.25.
For the variant YGFG, the enrichment ratio was ≤ 0.25.
In the case of AKAN, the enrichment ratio is ≤ 0.25.
As to QQDM, the enrichment ratio is ≤ 0.25.
With NWPI, the enrichment ratio was ≤ 0.25.
For the variant SPML, the enrichment ratio was ≤ 0.25.
As for LRAP, the enrichment ratio is ≤ 0.25.
As for YARK, the figure is ≤ 0.25; as for PWWC, ≤ 0.25.
For WPGQ, the enrichment ratio was ≤ 0.25.
In the case of NNPP it was ≤ 0.25; in that of YLWG, ≤ 0.25.
With VDWV, the enrichment ratio was ≤ 0.25.
With SWND, the enrichment ratio is ≤ 0.25.
For WKDK, the enrichment ratio was ≤ 0.25.
Take HKGW: the enrichment ratio was ≤ 0.25.
For RSTD, the enrichment ratio was ≤ 0.25.
Turning to ICPV, the enrichment ratio is ≤ 0.25.
As to QLSH, the enrichment ratio turned out to be 0.719.
With NGYA, the enrichment ratio is ≤ 0.25.
On to GPDN, for which the enrichment ratio was ≤ 0.25.
For the variant GRQA, the enrichment ratio was ≤ 0.25.
YRWV: the enrichment ratio was ≤ 0.25.
As for IPIF, the figure is ≤ 0.25.
For GTYN, the enrichment ratio was ≤ 0.25.
As for TFMM, the figure is ≤ 0.25; as for EDHR, ≤ 0.25.
For the variant WDKH, the enrichment ratio is ≤ 0.25.
MLNL: the enrichment ratio is ≤ 0.25.
As for LIYE, the figure is ≤ 0.25.
In the case of VKQW it was ≤ 0.25; in that of YHNC, ≤ 0.25.
In the case of FIWY, the enrichment ratio was ≤ 0.25.
As for NSQH, the figure is ≤ 0.25.
As for SPLY, the figure is ≤ 0.25; as for LKWW, ≤ 0.25; as for VEPF, ≤ 0.25.
On to CSLV, for which the enrichment ratio was ≤ 0.25.
On to DMPY, for which the enrichment ratio was ≤ 0.25.
VGYK: the enrichment ratio is ≤ 0.25.
In the case of LPIG it was ≤ 0.25; in that of GFSA, ≤ 0.25.
With SWLT, the enrichment ratio was ≤ 0.25.
Take NGYL: the enrichment ratio is ≤ 0.25.
As for TKCS, the enrichment ratio came to 13.2.
With LGET, the enrichment ratio is ≤ 0.25.
As for MCGN, the figure is 16.3; as for WKAN, ≤ 0.25.
On to NSNV, for which the enrichment ratio is ≤ 0.25.
Consider TWKH, for which the enrichment ratio was ≤ 0.25.
With FAWK, the enrichment ratio is ≤ 0.25.
As for MHTA, the enrichment ratio was ≤ 0.25.
As for PEVP, the enrichment ratio was ≤ 0.25.
As for RIKM, the figure is 1.57; as for LCAP, ≤ 0.25; as for ASVL, 16.7.
In the case of GCTM it was 1.21.
In the case of LMVY, the enrichment ratio is ≤ 0.25.
Regarding ISCR, the enrichment ratio is ≤ 0.25.
On to YKGM, for which the enrichment ratio was ≤ 0.25.
In the case of DQRV, the enrichment ratio was ≤ 0.25.
Take GGVA: the enrichment ratio was ≤ 0.25.
With EVTY, the enrichment ratio was ≤ 0.25.
ARRV: the enrichment ratio was ≤ 0.25.
As for CGSN, the enrichment ratio was ≤ 0.25.
In the case of RLIF, the enrichment ratio was ≤ 0.25.
Consider KIRT, for which the enrichment ratio was ≤ 0.25.
As for CQFF, the enrichment ratio was ≤ 0.25.
Consider WQII, for which the enrichment ratio is ≤ 0.25.
As for YWLG, the figure is ≤ 0.25; as for GDTE, ≤ 0.25; as for GQVV, ≤ 0.25.
Turning to TSSY, the enrichment ratio stood at 14.6.
On to PCDG, for which the enrichment ratio is ≤ 0.25.
As for WYPM, the figure is ≤ 0.25.
